Data: the supplement of paper PMC11417369
This is one part of the list.

Test system: PfHDP1 homeodomain (GST-tagged)
Test: gcPBM binding intensity (ln(normalized median fluorescence intensity)); higher = stronger DNA binding
In short: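 For binding intensity, the highest Masliner-normalised natural-log median intensity across replicate spots of either probe orientation was taken. Protein bound to the array was stained with Alexa488 anti-GST antibody and scanned at 488 nm. The protein, GST-tagged P. falciparum DNA-binding domains from E. coli at about 25 μg on average, had been applied for 1 h to an Agilent 4 × 180k array of primer-extended double-stranded 36-bp intergenic genomic probes and negative controls.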

| Sequence | gcPBM binding intensity (ln) |
| --- | --- |
| ACATGTTTTATGTGCACACAAAGTTGTTATGAGGTT [CACACA_site4031] | 10.7 |
| ATATAATATTTCATGTGGACACATTTTATGATTGTA [XGTACX_site8770] | 6.77 |
| ACACATATATATTATTATTATATAATATATATATAT [CACACA_negctrl_site1545] | 8.32 |
| AATAAATATATTACATATATGTGTAGTATTTTTTTA [TGCATGCA_negctrl_site268] | 6.31 |
| TAAGCTTGTAACAGTTTACACACTAATATTTATAAA [CACACA_site3907] | 6.39 |
| TTATTAAATTTTTTTTGTACTTATATATATATATAT [XGTACX_site2443] | 9.03 |
| TATGAATGTATATGTTGTACATATAAATATTTATAT [XGTACX_site1146] | 6.5 |
| ATTATTATATAGTGTGCATGCAATATTAATAAAACC [TGCATGCA_site245] | 9.14 |
| CAAAAAAAAAAAAAAACACACATTAAATTAGAAAGA [CACACA_site7271] | 6.12 |
| ATATACATTTAAATGTGTACATAATAAAATAAAAAA [XGTACX_site8170] | 7.18 |
| AATATTTATATTTAGTGTACAGAAATAAAAAAAAAA [XGTACX_site6066] | 6.44 |
| GCTAATTTATTTTGCAGTACATATATAATAATATAT [XGTACX_site478] | 6.29 |
| TTTACAAAAAATTATACACACACGTACAGATAAATA [CACACA_site4678] | 6.97 |
| TCCTCATTTTATCATACACACTTGTTTATATGGGTG [CACACA_site4650] | 6.63 |
| ACCCATAAAAATTATGCACACTTAATAAAGCGAAAT [CACACA_site5722] | 10.2 |
| ATAATTTATTTTAAAAGTACTCAATTTGCTTTTCTC [XGTACX_site5749] | 6.29 |
| AAATAATTAAACATATGTACATATTATATATATATA [XGTACX_site6774] | 8.72 |
| TATATTTATTATAATTGTACATAAAATAAACTAAGA [XGTACX_site4318] | 6.41 |
| TGATTAAATAAATATATATATTTATATATTATACAG [CACACA_negctrl_site1596] | 6.26 |
| GCTCTATCAAAAAAATGTACACATATTATCATTCAT [XGTACX_site143] | 6.54 |
| CAAATAAATATTAAAAGTACACACAGATACACTAAT [XGTACX_site3749] | 6.7 |
| TATATATATATATATGTGCACTGGACATATTTTTAT [GTGCAC_site9721] | 9.84 |

| Sequence | gcPBM binding intensity (ln) |
| --- | --- |
| TTTTTATTTAATAGTTGTACATTGAAAAATATGTAT [XGTACX_site3025] | 6.23 |
| AATACCCAAGGACACACACACACATATATATATATA [CACACA_site8345] | 9.32 |
| ATAATATAAATACAAACACACAATTGTGTCCACATT [CACACA_site6920] | 6.79 |
| ATTTTTATTTTTATTTGTACTTATATATTCTTAAGC [XGTACX_site4122] | 6.7 |
| TTTTTAAATATAAACAAAAAAAAAAAATATATCAAT [XGTACX_negctrl_site328] | 6.33 |
| ATCATATTTATGTTGGTGCATTATGCATGGATTTTA [GTGCAC_site9795] | 10.8 |
| TTACAATTAATAAAGTGTACTTAACTATTATATATA [XGTACX_site481] | 6.11 |
| TTTTAAAGTTGTGAGCTTCATTTTTATTTATATGTA [CACACA_negctrl_site1505] | 6.21 |
| ATATATATATATGTCTGTACATAAAAAATAATAAAT [XGTACX_site3122] | 9.03 |
| TTGATCTATAATAATACACACTTACATAATTAATTA [CACACA_site6273] | 6.59 |
| AAAAATAGACAAAAGAGTACAAGAAAAAAAGGGTTC [XGTACX_site7843] | 6.61 |
| ATATTCCTACATACAACACACGACGTTCTCATAAGA [CACACA_site231] | 6.74 |
| GGAAAATGAAAAACAAAAAAAAAAAAAAAAAAATGA [TGCATGCA_negctrl_site432] | 6.01 |
| TCTTTTTAGATATATACACACCGTGTCTACCTATAC [CACACA_site7551] | 6.38 |
| ACATCTGTTATTTGTGGTACTAAAAAAATATATAGT [XGTACX_site8322] | 6.48 |
| AAATATATCATACAAAGTACTTGGAATTAATATATA [XGTACX_site8907] | 6.3 |
| AATATAATATAATGCACACATAAAACAAAAAAAAAA [CACACA_site3012] | 10.2 |
| TAATTTTTCCAACTTTGTACAGATATATTAATAAAA [XGTACX_site7856] | 6.22 |
| GTTGATACATGAAGCTGTACATAATATTTGTCATTT [XGTACX_site8628] | 6.42 |
| TCTTTTAAATAACAACATAAATAAATAAATAAATAA [GTGCAC_negctrl_site319] | 6.68 |
| GTCATATTAATATGTACACACATATTTATATTTATA [CACACA_site6798] | 6.62 |
| TAAATTAATAAACAAGTGCATATATATATATATATA | 9.73 |

| Sequence | gcPBM binding intensity (ln) |
| --- | --- |
| TTTTTACTATTTATATGACTAAAAATATATTGAATA [CACACA_negctrl_site188] | 6.07 |
| CAATTTATTTTTATTACACACTATCCAAGTAATTTC [CACACA_site7402] | 6.54 |
| TTTTATGTAACATCACGTACTTATATTTAAGTATTC [XGTACX_site7459] | 6.59 |
| CAAGCACACGGACACACACACACACGCGCACGCACA [CACACA_site6307] | 7.28 |
| TATATGTATAGAAAATGTACATATAAATATATATAT [XGTACX_site3420] | 7.94 |
| TAAAATTAATTTCTGTTGCACTTATTATTAATTAAC | 7.97 |
| TTTTTTTTTTTTTGCACACACCATATTTATAGAAAT [CACACA_site5772] | 9.04 |
| ATATTATACCCGTGTACACATTATAACCATATATAA [CACACA_site5933] | 7.27 |
| AAATTTTTTATGAACACACAAATACACGCACTCAAA [CACACA_site7286] | 7.29 |
| TAAAATATATAAAACTGTACATTTTAAAGGCACAAC [XGTACX_site8342] | 7.1 |
| AATAATAAAATAAAGGCATGCACAATATGCTATAAA [TGCATGCA_site645] | 7.96 |
| TATGTATCAAATAAATGTACATATATATATATATAT [XGTACX_site2189] | 9.5 |
| AATTAAAATAGTAATACACACTTCATAGGAAATGAT [CACACA_site5045] | 6.24 |
| TATAGCAAAAAATTTACACACATGTTTTTTCTATAC [CACACA_site325] | 6.74 |
| GGCATTTTATGAAGTAGTACCATAAATATTAAAGAT [XGTACX_site5287] | 6.65 |
| CCTTTATTTTATATGTGTACTAAATTGTATATATAT [XGTACX_site8717] | 6.92 |
| ATGTTTTATAAAAGGCGTACACATATGCTTAAGTAA [XGTACX_site6232] | 7.24 |
| CTGAAGGAAAAAGAAAGTACTTTTTTTTTTTTGAAG [XGTACX_site5973] | 5.91 |
| AAAAAAAAAATATCATGTACAAATATAATAAAATTT [XGTACX_site3896] | 6.27 |
| TATTAAAAAGAGGTGACACACACATATAAATCTAAA [CACACA_site9243] | 6.44 |
| TTAAAAAAATTAATATGTACATATATTTATATATAT [XGTACX_site5317] | 6.54 |
| TATATATTTTATTTATGTACGAAAATAAATTAAATT [XGTACX_site3628] | 6.07 |

| Sequence | gcPBM binding intensity (ln) |
| --- | --- |
| AACCACATACCTATAACACACATATACAATATAGAT [CACACA_site7023] | 6.98 |
| ACATCATAGAAAAATTGATATATATATATATATATA [CACACA_negctrl_site130] | 9.48 |
| TCCACAAAGCATGTAACACACAACATATAAGACATA [CACACA_site972] | 7.09 |
| TGTTGGCAGGTGAATGCATGCATATAAGTCTATCTG [TGCATGCA_site781] | 7.14 |
| TTCAATGCATGTCCATGTACATATAAAAAAAAATAC [XGTACX_site1597] | 6.93 |
| TTATTAAAACAAAATGTACACACATATAATTTAATG [CACACA_site8193] | 6.19 |
| TTTTTCTTTCTTTCTTTTTTAATATTACAAATGTAT [XGTACX_negctrl_site267] | 6.7 |
| AAAGTAGAATATCCCCTACACACCCAAATAATTTAC [CACACA_site1255] | 7.32 |
| AATATTTTAATGCACACACACAAAAAAAAAAAAAAA [CACACA_site7374] | 10.7 |
| AATCCTTTACGACACACACACAAAAAAAAAAAAAAA [CACACA_site6449] | 6.39 |
| TTTTTTATTGTGAAACTGATATTATATTTTTTATAA [GTGCAC_negctrl_site559] | 6.07 |
| TAAACATTTTTAATTTTGTAAAATTTTAAATAAAAA [XGTACX_negctrl_site612] | 6.16 |
| TGAATATTTTATGATTGTACATATTATAATAAACAT [XGTACX_site6113] | 6.5 |
| ACAAACAAAGAAAGAACACACATACACAAGATACCT [CACACA_site7353] | 6.82 |
| TTTTTGATATTAAAGGGTACATTATTTACAAAAAAA [XGTACX_site5284] | 6.11 |
| AAAACAAACATTACACGTACAAAACAAGTTATAGAC [XGTACX_site6320] | 6.47 |
| GATCCTGGTTCTTGTGGTACTTGTTCATTTGTTATA [XGTACX_site7164] | 6.69 |
| ATTCTTTTATTTAGTAGTACATTTGTATTTTATTCA [XGTACX_site5790] | 6.95 |
| ATGCTTTTTTATAAAAGTACATAAAGTTTTTACACT [XGTACX_site7307] | 6.21 |
| CTGCCTTCCATACCCACACACTTCCCATATATTTTA [CACACA_site5491] | 7.01 |
| TTAAGAATATTTTCATGTACTCATTTTTTTTGTTAT [XGTACX_site1814] | 6.19 |
| AATAAAAATATATCCACACACATATATAAATATGTA [CACACA_site6415] | 6.27 |
